Results from the supplement of paper PMC9151546.
Single values are uncertain, as repeats are few or missing.

How the values were obtained:
CHO-K1 [1] = assay: micronucleus frequency (% of nucleated events); higher = more micronuclei (genotoxic)
CHO-K1 [2] = assay: hypodiploid nuclei frequency (% of nucleated events); higher = more hypodiploid events (aneugenic)
Protocol: (§1)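 Flow-cytometric in vitro micronucleus assay (Litron MicroFlow) in CHO-K1 cells in 96-well plates, 19 concentrations (4.5-200 µM, n=1 per concentration). Without S9, cells were exposed for 24 h and sampled at 48 h. With Aroclor 1254-induced rat liver S9, cells were exposed for 3-4 h and sampled at 27-28 h. Read-outs are %MN and %hypodiploid nuclei relative to nucleated events, and relative survival as the nuclei-to-bead ratio versus the 1% DMSO vehicle control (x100).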

CHO-K1 [3] = assay: relative survival (nuclei to bead ratio vs DMSO control) (% of vehicle control); higher = more surviving cells
Protocol: as §1
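Throughout, for hypodiploid nuclei frequency (% of nucleated events): hypodiploid nuclei gated on a flow cytometer with 488 nm excitation after SYTOX Green staining, cultures at 37 °C, positive controls vinblastine without S9 and cyclophosphamide with S9.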
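Throughout, for micronucleus frequency (% of nucleated events): cells lysed with nuclei stained by SYTOX Green, then micronucleus-gated events counted against nucleated events by flow cytometry with 488 nm excitation.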
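Throughout, for relative survival (nuclei to bead ratio vs DMSO control): Lysed-cell nuclei stained with SYTOX Green and counted against counting beads by flow cytometry at 488 nm excitation, with vinblastine (no S9) and cyclophosphamide (plus S9) as positive controls.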

CCC(C)c1ccccc1O (configuration not stated) [2-(Butan-2-yl)phenol]
Conditions	hypodiploid nuclei frequency, CHO-K1 [2] [%]	micronucleus frequency, CHO-K1 [1] [%]	relative survival, CHO-K1 [3]
concentration: 4.5 (µM), S9 metabolic activation: with S9, exposure time: 3-4 hours	0.16	1.58	170
concentration: 4.5 (µM), S9 metabolic activation: without S9, exposure time: 24 hours	0.86	2.56	140
concentration: 5.63 (µM), S9 metabolic activation: with S9, exposure time: 3-4 hours	0.2	0.94	176
concentration: 5.63 (µM), S9 metabolic activation: without S9, exposure time: 24 hours	1.02	2.84	164
concentration: 7.04 (µM), S9 metabolic activation: with S9, exposure time: 3-4 hours	0.2	1.38	173
concentration: 7.04 (µM), S9 metabolic activation: without S9, exposure time: 24 hours	0.58	2.5	159
concentration: 8.8 (µM), S9 metabolic activation: with S9, exposure time: 3-4 hours	0.2	1.04	150
concentration: 8.8 (µM), S9 metabolic activation: without S9, exposure time: 24 hours	0.54	2.08	138
concentration: 11 (µM), S9 metabolic activation: with S9, exposure time: 3-4 hours	0.24	1.22	159
concentration: 11 (µM), S9 metabolic activation: without S9, exposure time: 24 hours	0.62	3.06	144
concentration: 13.7 (µM), S9 metabolic activation: with S9, exposure time: 3-4 hours	0.2	1.38	166
concentration: 13.7 (µM), S9 metabolic activation: without S9, exposure time: 24 hours	0.62	2.52	128
concentration: 17.2 (µM), S9 metabolic activation: with S9, exposure time: 3-4 hours	0.14	1.42	171
concentration: 17.2 (µM), S9 metabolic activation: without S9, exposure time: 24 hours	0.6	2.44	128
concentration: 21.5 (µM), S9 metabolic activation: with S9, exposure time: 3-4 hours	0.38	1.92	117
concentration: 21.5 (µM), S9 metabolic activation: without S9, exposure time: 24 hours	0.78	2.16	117
concentration: 26.8 (µM), S9 metabolic activation: with S9, exposure time: 3-4 hours	0.16	2.86	181
concentration: 26.8 (µM), S9 metabolic activation: without S9, exposure time: 24 hours	0.78	2.04	128
concentration: 33.6 (µM), S9 metabolic activation: with S9, exposure time: 3-4 hours	0.48	2.72	155
concentration: 33.6 (µM), S9 metabolic activation: without S9, exposure time: 24 hours	0.5	1.78	164
concentration: 41.9 (µM), S9 metabolic activation: with S9, exposure time: 3-4 hours	0.62	3.86	122
concentration: 41.9 (µM), S9 metabolic activation: without S9, exposure time: 24 hours	0.6	2.1	158
concentration: 52.4 (µM), S9 metabolic activation: with S9, exposure time: 3-4 hours	1.1	6.54	107
concentration: 52.4 (µM), S9 metabolic activation: without S9, exposure time: 24 hours	0.9	3.08	144
concentration: 65.5 (µM), S9 metabolic activation: with S9, exposure time: 3-4 hours	1.16	11.4	77
concentration: 65.5 (µM), S9 metabolic activation: without S9, exposure time: 24 hours	0.86	2.42	149
concentration: 81.9 (µM), S9 metabolic activation: with S9, exposure time: 3-4 hours	1.54	32.4	57.5
concentration: 81.9 (µM), S9 metabolic activation: without S9, exposure time: 24 hours	1.02	2.38	136
concentration: 102 (µM), S9 metabolic activation: with S9, exposure time: 3-4 hours	1.83	64.9	43.5
concentration: 102 (µM), S9 metabolic activation: without S9, exposure time: 24 hours	0.7	3.68	122
concentration: 128 (µM), S9 metabolic activation: with S9, exposure time: 3-4 hours	–	–	33.5
concentration: 128 (µM), S9 metabolic activation: without S9, exposure time: 24 hours	0.92	5.48	132
concentration: 160 (µM), S9 metabolic activation: with S9, exposure time: 3-4 hours	–	–	30
concentration: 160 (µM), S9 metabolic activation: without S9, exposure time: 24 hours	1.16	3.26	120
concentration: 200 (µM), S9 metabolic activation: with S9, exposure time: 3-4 hours	–	–	30.6
concentration: 200 (µM), S9 metabolic activation: without S9, exposure time: 24 hours	1.04	2.78	115
